According to ChEMBL document CHEMBL4888484, “Replenishing the malaria drug discovery pipeline: Screening and hit evaluation of the MMV Hit Generation Library 1 (HGL1) against asexual blood stage Plasmodium falciparum ,using a nano luciferase reporter read-out” (2022):
The campaign covered roughly 150,000 compounds. About 540 (0.36%) showed an effect of 50% or more. The list shows a part of the results.

System: Plasmodium falciparum
Assay: Primary screen in NF54 nanoGlo assay, in single point, at 2uM, 72h; a lower Z score goes with more inhibition
Type: functional, Erythrocyte
Conditions: timepoint 72 hour

Compound | % Inhibition | Z score
O=C(Nc1cccc2cccnc12)c1ccc2c(c1)CCCC2 | 3% | -0.34
CC(C)n1cc2c(n1)C[C@@H](NC(=O)c1ccc3cnccc3c1)CC2 | -1% | 0.15
Cc1ncc(C(=O)N(C[C@H]2CCCO2)c2ccncc2)c(C)n1 | -5% | 0.7
COc1c(C)cnc(CN(CC(N)=O)C2CCCC2)c1C | -4% | 0.78
COc1ccccc1CNc1cn[nH]c(=O)n1 | -4% | 0.6
N#Cc1cccc(N2CCN(Cc3cc4ccccc4[nH]3)C[C@H](O)C2)n1 | 2% | -0.33
COc1ccc(-c2c(-c3ccc(C)c(C)c3)[nH]c3c2c(=O)[nH]c(=O)n3C)cc1 | -4% | 0.68
COCCn1c(-c2ccnn2C)nnc1N1C[C@H]2CC=CC[C@H]2C1 | -3% | 0.47
O=C1COc2c(cccc2NC(=O)c2ccoc2Cl)N1 | 1% | -0.2
COc1cc([C@@H]2NC(=O)c3sc(=S)n(-c4ccccc4)c3N2)ccc1OCc1ccccc1 | -6% | 0.61
Cc1oc(-c2ccc(C(C)C)cc2)nc1Cn1cnc2nc3c(cc2c1=O)CCCC3 | -16% | 2.11
CC[C@@H](C(=O)O)N(C)Cc1c(OC)ccc(F)c1F | -4% | 0.51
C[C@@H](CCc1ccc(O)cc1)N1CCC(N2CCC(C(=O)NC3CC3)CC2)CC1 | 7% | -1.05
CCn1ncc(CNC(=O)Nc2sc(C)nc2CC(C)C)n1 | -4% | 0.89
CCCCc1c(C)[nH]c2nc(N(Cc3ccc(C#N)cc3)C(=O)c3ccc(OC)cc3)nn2c1=O | -2% | 0.27
CCN1CCCC[C@H]1C(=O)N1CCOc2ccc(CN3CCc4ccccc4C3)cc2C1 | -3% | 0.41
O=C(NC1CC1)C1(C(=O)N2CCCC2)CCC1 | 1% | -0.14
Cc1nn(C)c(C)c1NC(=O)N1CCN[C@H](c2ccccc2Cl)C1 | -2% | 0.3
CS(=O)(=O)N1CC(C(=O)Nc2cccc3nsnc23)C1 | -20% | 3.07
COc1cc(C)nc(N[C@@H](C)c2nc(C)cs2)n1 | -4% | 0.31
CCc1ccc(C(=O)NCCCn2ccnn2)[nH]1 | 0% | -0.05
CC(C)Cc1ccc(CNCc2n[nH]c(=O)[nH]2)s1 | -5% | 0.99

Compound | % Inhibition | Z score
O=C(NCC1CCCO1)C1CC1c1ccccc1 (configuration not stated) | -2% | 0.26
O=C(NCCc1c[nH]c2ccccc12)C(=O)NCCc1c[nH]c2ccccc12 | -2% | 0.31
COc1ccc(-n2nc(C(=O)N3CCCC3)c(=O)n(Cc3cccc(C(F)(F)F)c3)c2=O)cc1OC | -15% | 2.08
O=C1C[C@H](c2csc(-c3ccccc3)n2)C2(CCCC2)O1 | -16% | 2.47
Cc1ncccc1CNc1cncc(F)c1 | -13% | 2.53
O=C(NCCn1cc(-c2nc(-c3ccccn3)no2)nn1)c1ccccc1Cl | -19% | 3.69
CC[C@H](C)NC(=O)c1coc(CN(CCc2c[nH]c3ccccc23)Cc2cc(C)ccc2C)n1 | -6% | 0.54
O=C(Nc1ccccc1C(F)(F)F)C1CN(C(=O)c2ccc(F)c(F)c2)C1 | -13% | 2
C[C@H](NC(=O)Nc1ccccc1)c1cc2ccccc2o1 | -9% | 0.82
Cc1cccc(NCc2cc(C)no2)c1 | 7% | -0.95
CCn1c(=O)c(NCc2nc(C)c[nH]2)nc2ccccc21 | 0% | -0.01
CC(NC(=O)NC1CCCCC1O)c1ccc(-c2cccnc2)cc1 (configuration not stated) | 26% | -2.99
Cc1nc2c(c(N3CCCC3)n1)CCN(C(=O)C(=O)N1CCOCC1)C2 | -12% | 2.3
CS(=O)(=O)N1CCN(C(=O)N2CCC(=C3CCC3)CC2)C1=O | -9% | 1.41
COc1ccc(N2CCC(C(=O)NC3CCCCCCC3)CC2)nn1 | -7% | 0.83
CC(C)c1nc(C(=O)NCCCn2cnnc2)cs1 | -13% | 1.73
CC1=C(CCN2CCC(C(N)=O)CC2)C(C)(C)CCC1 | -11% | 2.02
Cc1cn2nc(NC3CCN(C(=O)C4CCCOC4)C3)ccc2n1 (configuration not stated) | -8% | 1.02
C#CCCC1(CCC(=O)N2CCCN(C(=O)CC)CC2)N=N1 | -3% | 0.31
CN(C)S(=O)(=O)c1cc(Br)ccc1Br | -2% | 0.15
O=C(NC1CCCC1)N1CCOc2ccc(C(=O)N3CCOCC3)cc2C1 | -6% | 0.9
Cc1c(NCc2ccccn2)cccc1C(=O)N1CC[C@@]2(CCCNC2)C1 | 2% | -0.25

Compound | % Inhibition | Z score
O=C(Nc1ccccc1)c1ccc(S(=O)(=O)c2ccccc2)cc1 | 7% | -0.87
O=C(Nc1nc2c3c(ccc2s1)CCCC3)c1nccn2ccnc12 | 8% | -0.88
N#Cc1ccccc1S(=O)(=O)NCc1ccnc(-c2ccsc2)c1 | -11% | 1.21
O=S1(=O)CCC(CNC2CCc3ccc(F)cc32)C1 (configuration not stated) | -8% | 1.29
O=C1CCN(C(=O)c2ccccc2)CCC[C@H](C(=O)NCc2ccc(F)cc2)CCN1 | -1% | 0.12
COCC(C)(C)CNc1ncc(C(=O)O)cc1Cl | -1% | 0.11
Cc1ccc(NC(=O)[C@H]2CC(=O)N(CCc3c[nH]c4ccc(C)cc34)C2)c(C)c1 | -1% | 0.1
COCC1(C(=O)NCc2cccnc2N2CCCCCCC2)CCC1 | -2% | 0.34
C[C@H]1C[C@@H](O)CCN1Cc1ccccc1F | -17% | 2.15
CN1CCCC(CNc2ncccc2C#N)C1c1cccs1 (configuration not stated) | -5% | 0.52
CC(=O)Oc1c(-c2ccc(NC(=O)c3ccccc3Cl)cc2)c(CC(C)C)nn1-c1cccc(C)c1 | -1% | 0.11
CN(Cc1cnccn1)S(=O)(=O)c1ccc2cn[nH]c2c1 | -4% | 0.5
O=C(Nc1scnc1-c1ccc(F)cc1)C1CC1c1ccco1 (configuration not stated) | -1% | 0.09
COCC(=O)Nc1ccc2c(c1)CN(C(=O)OC(C)(C)C)C2 | 6% | -0.71
Cc1ccc2[nH]c(CCNC(=O)C[C@H]3CCCOC3)nc2c1 | -4% | 0.49
CCc1nccc(CN(C)Cc2nccn2CC)n1 | -5% | 0.63
Cc1nn(CC(=O)NCCc2ccc[nH]2)c2ncccc12 | -8% | 1.48
O=C(CN1C(=O)CCC1=O)NCC(c1ccco1)c1ccco1 | -6% | 0.81
c1csc([C@@H]2CN(c3nc4ccccc4[nH]3)CCO2)c1 | 4% | -0.83
CCC(=O)N1CCc2ccc(OCc3ccc(C(=O)NCC4CC4)o3)cc2[C@@H]1c1cccc(C)c1 | -18% | 1.63
Cc1cccc(C)c1[C@@H]1CCCN1C(=O)NCc1nnn(C)n1 | -1% | 0.12
CCc1ccc(CN2CCCC[C@@H]2CCC(=O)O)nc1 | -5% | 0.87

Compound | % Inhibition | Z score
COc1ccccc1-c1[nH]c2[nH]c(=O)[nH]c(=O)c2c1[C@H]1C(=O)N(C)c2ccccc21 | 1% | -0.1
CN(CC(=O)N1CCCCC1)Cc1ncon1 | 3% | -0.62
CCN(C(=O)c1oc(C)nc1C)c1ccccc1S(=O)(=O)CC | 4% | -0.63
COCCN(C)CCNC(=O)C(=O)c1ccc(Br)cc1 | -8% | 0.81
O=C1NC(c2cccc(Cl)c2Cl)C(C(=O)c2cccnc2)C(O)(C(F)(F)F)N1 (configuration not stated) | 26% | -2.92
CC[C@@H](c1ccccn1)n1cc(-c2cc(CN(C)C)cs2)nn1 | -6% | 0.72
Cc1ccc(CNc2nnc(N3CCOCC3)c3ccccc23)cc1 | -15% | 1.34
CC(C)Cc1nc2cc(NS(=O)(=O)N(C)C)cc(C(=O)N3CCN(c4ccccc4)CC3)c2n1C | -11% | 1.47
CCc1c(C(=O)N(C)Cc2ccon2)cnn1C(C)(C)C | -2% | 0.33
Cc1ccc(C(CNC(=O)N2CC3CCC2C3)N2CCCC2)o1 (configuration not stated) | 26% | -2.99
CC(C)(C)c1coc(CNC(=O)c2cnn3c2OCCC3)n1 | -6% | 1.16
CCO[C@@H](C)C(=O)NS(=O)(=O)c1ccc2c(c1)OCCCO2 | -25% | 2.92
CO[C@H]1CN(C(C)C)C[C@@H]1NS(=O)(=O)NCc1ccccc1 | -6% | 0.87
O=C(NC1CCC2OCCOC2C1)c1ccsc1 (configuration not stated) | -5% | 1.01
CC(C)[C@H](NC(=O)c1ccco1)C(=O)NCc1nnc2ccccn12 | -8% | 1.59
Cc1ccn2c(O)c(C(=O)NC[C@H](C)O)c(=O)nc2c1 | 3% | -0.44
Nc1ccc(S(=O)(=O)Nc2nc3ccccc3o2)cc1 | -19% | 3.61
COCC1(S(=O)(=O)N2CCOC[C@H]2c2nc(-c3cccs3)no2)CC1 | -12% | 1.57
Cc1nnsc1C(=O)N[C@@H](C)Cc1ccoc1 | 3% | -0.45
COCCNC(=O)N1CCC(Oc2cnc3ccccc3n2)CC1 | -18% | 3.48
